Source: publication PMC4336329 (PLoS ONE, 2015)
Screen size: about 310,000 compounds; about 2,200 (0.71%) showed an effect of 50% or more. The effect is printed as a negative number. The list shows a part of the results.

target: human ether-à-go-go-related gene (hERG) potassium channel (human, UniProt Q12809); experiment: primary screen, population patch clamp on CHO cells stably expressing hERG
Sequence (Q12809 whole entry, looked up): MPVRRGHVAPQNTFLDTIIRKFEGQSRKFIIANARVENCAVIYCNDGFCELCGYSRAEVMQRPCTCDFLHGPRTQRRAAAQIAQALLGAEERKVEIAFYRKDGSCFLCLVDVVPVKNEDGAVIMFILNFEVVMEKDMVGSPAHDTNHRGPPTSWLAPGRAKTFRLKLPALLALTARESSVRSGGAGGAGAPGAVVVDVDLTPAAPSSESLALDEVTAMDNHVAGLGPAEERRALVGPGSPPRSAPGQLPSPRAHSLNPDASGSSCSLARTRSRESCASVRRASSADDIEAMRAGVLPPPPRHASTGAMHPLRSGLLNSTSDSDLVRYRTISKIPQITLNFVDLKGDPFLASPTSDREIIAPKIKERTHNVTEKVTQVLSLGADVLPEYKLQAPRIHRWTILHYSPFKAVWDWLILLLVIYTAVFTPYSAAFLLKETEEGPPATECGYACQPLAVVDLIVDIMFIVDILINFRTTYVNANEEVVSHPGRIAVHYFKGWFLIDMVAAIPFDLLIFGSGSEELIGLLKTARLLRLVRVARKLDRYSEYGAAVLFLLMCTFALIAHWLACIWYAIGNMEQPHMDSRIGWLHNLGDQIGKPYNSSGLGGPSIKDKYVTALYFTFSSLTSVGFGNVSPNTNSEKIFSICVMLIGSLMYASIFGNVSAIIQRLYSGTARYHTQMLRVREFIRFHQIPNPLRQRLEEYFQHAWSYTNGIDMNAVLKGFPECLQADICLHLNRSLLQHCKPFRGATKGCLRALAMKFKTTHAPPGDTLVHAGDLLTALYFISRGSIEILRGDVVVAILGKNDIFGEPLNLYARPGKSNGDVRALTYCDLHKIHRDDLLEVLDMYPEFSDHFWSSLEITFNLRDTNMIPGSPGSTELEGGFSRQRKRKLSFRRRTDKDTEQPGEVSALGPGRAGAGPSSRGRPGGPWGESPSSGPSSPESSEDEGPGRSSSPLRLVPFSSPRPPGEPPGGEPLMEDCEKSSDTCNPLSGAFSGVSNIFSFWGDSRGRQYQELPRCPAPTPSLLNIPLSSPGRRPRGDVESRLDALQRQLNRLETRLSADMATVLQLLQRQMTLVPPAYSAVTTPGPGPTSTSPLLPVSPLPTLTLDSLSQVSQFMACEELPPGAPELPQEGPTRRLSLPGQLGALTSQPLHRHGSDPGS

| Compound | hERG current change (%, negative = inhibition) at 1uM [%] |
| --- | --- |
| CCN(CC)C(=O)c1ccc(Oc2ccc([N+](=O)[O-])cc2Cl)cc1 | -1.5 |
| CC1(C)CNC(=O)c2sc(N3CCCCC3)nc2C1 | 11.1 |
| Cc1ccccc1OC(C)C(=O)N1CCN(c2ccccn2)CC1 (stereo not shown) | 0.513 |
| O=C(CCNC(=O)c1ccc(Cl)cc1)Nc1ccncc1 | -0.777 |
| O=C(COC(=O)C1CC2C=CC1C2)Nc1ccccc1F (stereo not shown) | 5.97 |
| COc1ccc(S(=O)(=O)N2CCN(C(=O)CSC(=S)N3CCCC3)CC2)cc1 | 9 |
| COCCN(C(=O)COC(=O)/C=C/c1cccs1)c1c(N)n(Cc2ccccc2)c(=O)[nH]c1=O | 12.9 |
| CCC(C(=O)NC(C)(C)C)N(Cc1ccco1)C(=O)Cn1nnc(-c2ccc(F)cc2)n1 (stereo not shown) | 8.34 |
| Cn1cccc1Cc1nnc(SCC(=O)N2CCOCC2)n1CCc1ccccc1 | 5.79 |
| O=C(COc1ccccc1C(=O)Nc1ccccc1)c1ccc(F)cc1 | 9.54 |
| Nc1ccc(NC(=O)c2cccc(C(=O)Nc3ccc(N)cc3Cl)c2)c(Cl)c1 | 16.6 |
| CCc1ccccc1OCCCOc1ccc(OC)cc1 | 16.1 |
| Cc1ccc(-c2nn(-c3ccccc3)cc2C(=O)N2CCN(C3CCS(=O)(=O)C3)CC2)cc1 (stereo not shown) | -33.5 |
| Cc1[nH]c2ccccc2c1C(=O)CN1C(=O)NC2(CC(C)CC(C)(C)C2)C1=O (stereo not shown) | 0.747 |
| Cc1ccc(N=Cc2c(O)ccc3ccccc23)cc1F | 18.4 |
| CC1CCN(C(=O)COC(=O)C2CCN(S(=O)(=O)c3ccc(Cl)c(C(F)(F)F)c3)CC2)CC1 | 1.65 |
| CCCc1nn(-c2ccccc2)c2c1C(c1cccs1)C(C#N)=C(N)O2 (stereo not shown) | 3.84 |
| COc1cccc(OC)c1C(=O)N1CC(C)OC(C)C1 (stereo not shown) | 9.43 |
| COc1ccc(C(=O)NC(=S)NNC(=O)c2c(-c3ccccc3)noc2C)cc1OC | 6.13 |
| CCN1CCc2nc(NC(=O)c3ccccc3)sc2C1 | 16.3 |
| Cc1ccc(Cl)cc1Nc1nc(-c2sc(NC(=O)c3cccc(Cl)c3)nc2C)cs1 | 19.9 |
| N#Cc1c2n(c3c(N)ncnc13)CCCCC2 | 7.43 |
| CCc1ccccc1NC(=O)CN(c1ccc(OC)cc1OC)S(=O)(=O)c1ccccc1[N+](=O)[O-] | 16.4 |
| O=C1C(Cl)=C(NC2CCCCC2)C(=O)N1c1ccc(Cl)cc1 | 5.62 |
| CC(NS(=O)(=O)OCC(Cl)(Cl)Cl)c1ccccc1 (stereo not shown) | 14.5 |
| C/C(CC(=O)N1CCN(C=O)CC1)=N\NC(=O)c1ccc(Cl)cc1 | 16.1 |
| COc1ccc(NC(=O)CCC2COc3ccccc3O2)c(OC)c1 (stereo not shown) | -5.45 |
| Cn1c(SCC(=O)NCCNC(=O)CSc2nnc(C(F)(F)F)n2C)nnc1C(F)(F)F | 5.79 |

| Compound | hERG current change (%, negative = inhibition) at 1uM [%] |
| --- | --- |
| CCCN(S(=O)(=O)c1ccccc1F)S(=O)(=O)c1ccccc1Br | 11.3 |
| Cc1cc2ccccn2c1C(=O)c1ccncc1 | -0.461 |
| O=[N+]([O-])c1ccc(NC2CCN(Cc3ccccc3)CC2)c([N+](=O)[O-])c1 | -60 |
| O=S(=O)(c1ccccc1)N1CCN(C/C=C/c2ccccc2)CC1 | 1.74 |
| COc1cc(/C=c2\sc3nc(=O)c(-c4ccccc4)nn3c2=O)ccc1OCCC(C)C | 4.36 |
| c1ccc(CSc2nnc(-c3cccs3)o2)cc1 | 5.53 |
| COc1ccc(CCNC(=S)NC(=O)c2ccc(Br)cc2)cc1OC | 5.49 |
| C=CCn1c(=O)/c(=C\c2ccccn2)s/c1=C(/C#N)C(=O)NCC1CCCO1 (stereo not shown) | 5.33 |
| CSc1nnc([C@@H]2CCCN2C(=O)OC(C)(C)C)o1 | 13.9 |
| Cc1c(-n2c(SCC(C)C)nc3ccccc3c2=O)c(=O)n(-c2ccccc2)n1C | 5.73 |
| CC(C)OP(=O)(OC(C)C)C(NC(=O)c1ccccc1)C(N)=O (stereo not shown) | -1.3 |
| CCCCc1cc(=O)oc2cc(OCC(=O)NCCN3CCOCC3)c(Cl)cc12 | 11.6 |
| COc1ccccc1C(=O)NC(=O)COc1ccc(Cl)cc1Cl | 6.45 |
| CN(C)C(=O)/C(=C\c1cccc(Oc2ccccc2)c1)NC(=O)c1ccccc1 | 11.1 |
| Cc1c(NC(=O)/C(C#N)=C/c2ccc(-c3ccccc3Cl)o2)c(=O)n(-c2ccccc2)n1C | 3 |
| N#Cc1nc(-c2cccc3ccccc23)oc1N1CCCCC1 | 5.75 |
| NC(=S)N/N=C/c1c(O)c(Br)cc2oc3c(c12)CCCC3 | 11.3 |
| CCOC(=O)C1=C(N)N(c2cc(S(=O)(=O)N3CCOCC3)ccc2Cl)C(=O)C1 | 11.3 |
| COc1ccccc1CNC(=O)c1ccc(-c2ccccc2)cc1 | 5.79 |
| Cc1ccc2c(c1C)NC(C(=O)O)C1CC=CC21 (stereo not shown) | 14.4 |
| CCc1cccc(NC(=O)c2cnn(-c3ccccc3)c2C)c1 | -19.9 |
| CCC1CCCCN1C(=O)c1sc2nc(C)nc(N(CC)CC)c2c1C (stereo not shown) | 5.72 |
| Clc1ccc(-c2nnc(COc3ncnc4sccc34)o2)cc1 | 8.77 |
| CN(CC(=O)Nc1ccc(F)c(F)c1F)C(=O)CCCSc1nc2ccccc2[nH]1 | 8.51 |
| CS(=O)(=O)c1ccc(C(=O)OCC(=O)NNC(=O)COc2ccc(Cl)cc2)cc1 | 14.6 |
| CC1(c2ccc(OC(F)F)cc2)NC(=O)N(CC(=O)NC2CCCCC2)C1=O (stereo not shown) | -23.2 |
| COc1ccc(CCCc2nnc(SCC(=O)Nc3ccc(C)c(C)c3)o2)cc1 | -0.306 |
